{
  "source": "PubChem BioAssay (NCATS)",
  "key": {"[1]": {"assay": "Primary qHTS for inhibitors of nuclear receptor binding SET domain protein 2 (NSD2) in an isogenic RCH-ACV NSD2 p.E1099K mutant (9B) (AID 1645876); note: nearly all actives have a fitted effect of over 70% in size"}, "[2]": {"assay": "Primary qHTS for inhibitors of nuclear receptor binding SET domain protein 2 (NSD2) in an RCH-ACV wild type WT cells (2C) (AID 1645877); note: nearly all actives have a fitted effect of over 70% in size", "conditions": "activity change, negative = cell killing: at 44.9 µM (top of the series)"}, "[3]": {"system": "HEK293", "assay": "Cytotoxic Profiling of Annotated Libraries Using Quantitative High-Throughput Screening (AID 1296008); note: nearly all actives have a fitted effect of over 60% in size; for max response: % is set by controls: 0 for no effect and ±100 for the full control effect", "conditions": "Five cell lines viability, CellTiter-Glo ATP luminescence, 48-72 h; max response: stronger effect = lower value", "summary_of_the_method": "(§1)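 Cytotoxicity was measured as CellTiter-Glo ATP luminescence, read after 10 min at room temperature. Compound treatment of the cells lasted 48 or 72 hr at 37 degrees Celsius in a qHTS format.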"}, "[4]": {"system": "NIH3T3", "assay": "Cytotoxic Profiling of Annotated Libraries Using Quantitative High-Throughput Screening (AID 1296008)", "conditions": "Five cell lines viability, CellTiter-Glo ATP luminescence, 48-72 h; max response: stronger effect = lower value", "summary_of_the_method": "as §1"}, "[5]": {"system": "CRL-7250", "assay": "Cytotoxic Profiling of Annotated Libraries Using Quantitative High-Throughput Screening (AID 1296008)", "conditions": "Five cell lines viability, CellTiter-Glo ATP luminescence, 48-72 h; max response: stronger effect = lower value", "summary_of_the_method": "as §1"}, "[6]": {"system": "SKOV3", "assay": "Primary qHTS to identify gynecologic anti-cancer compounds using libraries of approved drugs and bioactive compounds (AID 1345084)", "conditions": "Gynecologic cancer cell panel viability, ATPlite luminescence, 48 h; series mostly up to 57.5 µM", "summary_of_the_method": "(§2)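 In this quantitative HTS, cell killing is estimated from loss of ATP-dependent luciferase light. Cells see five compound concentrations over a 48 h exposure.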"}, "[7]": {"system": "Zika virus NS2B-NS3 protease (unlinked complex)", "assay": "Primary screen GU Rhodamine qHTS for Zika virus inhibitors: Unlinked NS2B-NS3 protease assay (AID 1347159)", "summary_of_the_method": "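Enzyme 25 nM in Tris-HCl pH 8.0 + 0.01% Tween 20; compounds up to 114 microM, 15 min RT dark; + Rhod110 substrate 1.5 microM; read t0 and 15 min; delta fluorescence → % inhibition → 4-parameter Hill fit.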"}, "[8]": {"biological_target": "Cytochrome P450 2D6 (Homo sapiens) (UniProt P10635)", "sequence (P10635 whole entry, looked up)": "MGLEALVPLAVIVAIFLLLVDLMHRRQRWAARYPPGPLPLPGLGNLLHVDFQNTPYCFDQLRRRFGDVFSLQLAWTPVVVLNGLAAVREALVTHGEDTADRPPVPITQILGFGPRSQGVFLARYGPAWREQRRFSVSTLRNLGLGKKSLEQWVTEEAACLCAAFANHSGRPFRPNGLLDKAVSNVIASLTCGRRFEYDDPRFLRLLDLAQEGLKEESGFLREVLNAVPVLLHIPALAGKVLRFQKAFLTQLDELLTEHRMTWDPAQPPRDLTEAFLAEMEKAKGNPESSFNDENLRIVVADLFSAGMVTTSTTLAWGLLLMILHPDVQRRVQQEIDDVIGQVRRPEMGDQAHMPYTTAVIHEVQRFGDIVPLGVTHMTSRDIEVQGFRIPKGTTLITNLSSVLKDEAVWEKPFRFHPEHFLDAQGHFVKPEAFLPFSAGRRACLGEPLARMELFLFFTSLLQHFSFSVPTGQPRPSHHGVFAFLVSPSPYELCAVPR", "assay": "Cytochrome P450 family 2 subfamily D member 6 (CYP2D6) small molecule antagonists: luciferase biochemical (cell-free) qHTS assay (AID 1645840; active = well fitted curve in the direction sought with a large enough effect in the repeat runs; inconclusive = weak or mixed curves; inactive = no such curve, though single readings can be large; an effect the other way counts as inactive or inconclusive)", "summary_of_the_method": "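P450-Glo CYP2D6 system: proluciferin substrate converted by enzyme to luciferin, read by luminescence proportional to activity. Enzyme-substrate mix with compound 10 min at room temperature, then NADPH regeneration 1 h before detection reagent.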"}, "[9]": {"biological_target": "Cytochrome P450 2C9 (Homo sapiens) (UniProt P11712)", "sequence (P11712 whole entry, looked up)": "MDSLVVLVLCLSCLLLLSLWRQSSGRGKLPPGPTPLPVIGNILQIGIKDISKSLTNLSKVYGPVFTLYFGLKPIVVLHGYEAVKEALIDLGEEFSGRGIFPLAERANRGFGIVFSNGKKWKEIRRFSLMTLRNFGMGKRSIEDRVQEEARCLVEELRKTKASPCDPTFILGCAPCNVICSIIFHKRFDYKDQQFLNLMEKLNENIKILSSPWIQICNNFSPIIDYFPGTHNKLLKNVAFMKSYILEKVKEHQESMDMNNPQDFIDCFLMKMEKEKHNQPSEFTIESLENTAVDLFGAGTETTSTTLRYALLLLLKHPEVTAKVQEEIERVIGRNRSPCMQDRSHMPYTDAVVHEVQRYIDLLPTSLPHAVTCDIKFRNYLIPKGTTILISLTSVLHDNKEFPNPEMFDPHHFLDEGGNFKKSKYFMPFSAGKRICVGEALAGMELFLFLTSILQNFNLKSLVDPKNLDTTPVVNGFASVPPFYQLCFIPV", "assay": "Cytochrome P450 family 2 subfamily C member 9 (CYP2C9) small molecule antagonists: luciferase biochemical (cell-free) qHTS assay (AID 1645842; active = well fitted curve in the direction sought with a large enough effect in the repeat runs; inconclusive = weak or mixed curves; inactive = no such curve, though single readings can be large; an effect the other way counts as inactive or inconclusive)", "summary_of_the_method": "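P450-Glo CYP2C9 system: proluciferin substrate with enzyme in mix containing 0.4% BSA, 10 min at room temperature, then NADPH regeneration solution added and incubated 1 h at 37C. Detection reagent stopped reaction; luminescence read after 20 min as RLU.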"}, "[10]": {"system": "CAOV3", "assay": "Primary qHTS to identify gynecologic anti-cancer compounds using libraries of approved drugs and bioactive compounds (AID 1345084)", "conditions": "Gynecologic cancer cell panel viability, ATPlite luminescence, 48 h; series mostly up to 57.5 µM", "summary_of_the_method": "as §2"}, "[11]": {"system": "Es-2", "assay": "Primary qHTS to identify gynecologic anti-cancer compounds using libraries of approved drugs and bioactive compounds (AID 1345084)", "conditions": "Gynecologic cancer cell panel viability, ATPlite luminescence, 48 h; series mostly up to 57.5 µM", "summary_of_the_method": "as §2"}, "[12]": {"system": "Tov-21-G", "assay": "Primary qHTS to identify gynecologic anti-cancer compounds using libraries of approved drugs and bioactive compounds (AID 1345084)", "conditions": "Gynecologic cancer cell panel viability, ATPlite luminescence, 48 h; activity change, negative = cytotoxicity: at 57.5 µM (top of the series)", "summary_of_the_method": "as §2"}, "[13]": {"assay": "P-glycoprotein substrates identified in KB-8-5-11 adenocarcinoma cell line, qHTS therapeutic library screen (AID 1346987)", "summary_of_the_method": "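Human cervical adenocarcinoma KB-8-5-11 cells, selected in colchicine to over-express P-gp and assayed without it, were exposed for 72 h to titrated compounds. An ATP-based luminescent viability signal gave AC50.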"}, "[14]": {"assay": "Primary fluorescence-based thiol-reactive (MSTI) qHTS assay for identification of artifact compounds. (AID 1845221)", "summary_of_the_method": "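One-hour, room-temperature, dark incubation of compound with 4 uM MSTI in PBS (pH 7.4, 2% DMSO) precedes a fluorescence read at 525 nm excitation, 598 nm emission; Hill-equation fitting yields concentration-response values.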"}, "[15]": {"system": "Hek293T", "assay": "Primary qHTS to identify gynecologic anti-cancer compounds using libraries of approved drugs and bioactive compounds (AID 1345084)", "conditions": "Gynecologic cancer cell panel viability, ATPlite luminescence, 48 h, control line for the selectivity index; series mostly up to 57.5 µM", "summary_of_the_method": "as §2"}, "[16]": {"system": "HaCat", "assay": "Cytotoxic Profiling of Annotated Libraries Using Quantitative High-Throughput Screening (AID 1296008)", "conditions": "Five cell lines viability, CellTiter-Glo ATP luminescence, 48-72 h; max response: stronger effect = lower value", "summary_of_the_method": "as §1"}, "[17]": {"system": "KB-3-1", "assay": "Cytotoxic Profiling of Annotated Libraries Using Quantitative High-Throughput Screening (AID 1296008)", "conditions": "Five cell lines viability, CellTiter-Glo ATP luminescence, 48-72 h; max response: stronger effect = lower value", "summary_of_the_method": "as §1"}, "[18]": {"system": "OV90", "assay": "Primary qHTS to identify gynecologic anti-cancer compounds using libraries of approved drugs and bioactive compounds (AID 1345084)", "conditions": "Gynecologic cancer cell panel viability, ATPlite luminescence, 48 h; series mostly up to 57.5 µM", "summary_of_the_method": "as §2"}},
  "note": "“And” between values parts separate entries of the source, which are not always exact repeats. Equal entries are not always repeated. Inconclusive means that the source gave no clear call. Such entries were picked first, then a sample of the others. For part of these data: Potencies beside an inconclusive call are fits to weak or partial responses and may not hold up. The source made the active and inactive calls. Unless noted, calls come from the whole dose curve; as a rule, active = well fitted curve in the direction sought with a large enough effect; inconclusive = small, poorly fitted or top-dose-only effect, or another doubt; inactive = no such curve, though single readings can be large; an effect the other way counts as inactive or inconclusive. Potency is the fitted concentration of half-maximal effect; tags give direction and shape of the fitted curve. Throughout, for activity change, negative = cytotoxicity: % is set by controls: 0 for no effect and ±100 for the full control effect.",
  "data": [
    {"smiles": "Nc1ccn([C@H]2CC[C@@H](CO)O2)c(=O)n1", "values": [
      {"measurement": "Potency", "setting": "[1]", "value": "inconclusive: 26.6 µM [inhibitor, single point]"},
      {"measurement": "Potency", "setting": "[2]", "value": "inconclusive: 29.9 µM [inhibitor, single point]"},
      {"measurement": "Potency", "setting": "[3]", "value": "inconclusive: 37.2 µM [inhibitor, single point]"},
      {"measurement": "outcome", "setting": "[3]", "value": "inactive"},
      {"measurement": "max response", "setting": "[4]", "value": "inactive: -7.7% and inactive: 2.02%"}
    ]},
    {"smiles": "C=CCc1ccc(OC(C)Cc2ccc(OC)c(OC)c2)c(OC)c1", "note": "(centres undefined)", "values": [
      {"measurement": "Potency", "setting": "[1]", "value": "inconclusive: 11.3 µM [inhibitor, single point]"},
      {"measurement": "Potency", "setting": "[2]", "value": "inconclusive: 20.1 µM [inhibitor, single point]"},
      {"measurement": "Potency", "setting": "[5]", "value": "inconclusive: 18 µM [inhibitor, single point]"},
      {"measurement": "Potency", "setting": "[3]", "value": "inconclusive: 20.2 µM [inhibitor, single point]"}
    ]},
    {"smiles": "CC(C)NCC(O)COc1cccc2[nH]ccc12", "note": "(centres undefined)", "values": [
      {"measurement": "Potency", "setting": "[3]", "value": "inconclusive: 6.51 µM [inhibitor, single point]"},
      {"measurement": "max response", "setting": "[3]", "value": "inactive: -23%"},
      {"measurement": "Potency", "setting": "[6]", "value": "inconclusive: 39.8 µM [cytotoxic, single point]"}
    ]},
    {"smiles": "C[C@@H](O[C@H]1OCCN(Cc2nn(P(=O)(O)O)c(=O)[nH]2)[C@H]1c1ccc(F)cc1)c1cc(C(F)(F)F)cc(C(F)(F)F)c1", "values": [
      {"measurement": "Potency", "setting": "[7]", "value": "inconclusive: 31.6 µM [inhibitor, partial curve]"},
      {"measurement": "Potency", "setting": "[8]", "value": "inconclusive: 18.5 µM [inhibitor, single point]"},
      {"measurement": "Potency", "setting": "[9]", "value": "active: 13.1 µM"},
      {"measurement": "Potency", "setting": "[1]", "value": "inconclusive: 11.2 µM [inhibitor, single point]"},
      {"measurement": "Potency", "setting": "[2]", "value": "inconclusive: 10 µM [inhibitor, single point]"},
      {"measurement": "max response", "setting": "[5]", "value": "inactive: 0.664%"},
      {"measurement": "Potency", "setting": "[10]", "value": "inconclusive: 3.98 µM [rising, single point]"}
    ]},
    {"smiles": "CCN1CCC[C@H]1CNC(=O)c1cc(S(N)(=O)=O)ccc1OC", "values": [
      {"measurement": "Potency", "setting": "[3]", "value": "inconclusive: 23.1 µM [inhibitor, partial curve, poor fit]"},
      {"measurement": "outcome", "setting": "[3]", "value": "inactive"},
      {"measurement": "Potency", "setting": "[10]", "value": "inactive"},
      {"measurement": "Potency", "setting": "[11]", "value": "inactive"},
      {"measurement": "Potency", "setting": "[12]", "value": "inactive"}
    ]},
    {"smiles": "O=c1nc(-c2ccccn2)sc2ccccc12", "values": [
      {"measurement": "Potency", "setting": "[13]", "value": "inactive"},
      {"measurement": "Potency", "setting": "[7]", "value": "inactive"},
      {"measurement": "Potency", "setting": "[9]", "value": "inconclusive: 23.9 µM [inhibitor, single point]"},
      {"measurement": "Potency", "setting": "[1]", "value": "active: 4.59 µM"},
      {"measurement": "Potency", "setting": "[14]", "value": "inconclusive: 4.23 µM [inhibitor, full curve, poor fit]"},
      {"measurement": "Potency", "setting": "[5]", "value": "inconclusive: 29.1 µM [inhibitor, single point]"},
      {"measurement": "Potency", "setting": "[10]", "value": "inactive"},
      {"measurement": "Potency", "setting": "[6]", "value": "inconclusive: 39.8 µM [cytotoxic, single point]"},
      {"measurement": "Potency", "setting": "[12]", "value": "inconclusive: 31.6 µM [cytotoxic, single point]"}
    ]},
    {"smiles": "CCOC(=O)COc1ccc2c(C)c(CCN(CC)CC)c(=O)oc2c1Cl", "values": [
      {"measurement": "Potency", "setting": "[8]", "value": "inconclusive: 27.5 µM [inhibitor, partial curve, poor fit]"},
      {"measurement": "Potency", "setting": "[5]", "value": "active: 29.9 µM"},
      {"measurement": "Potency", "setting": "[11]", "value": "inconclusive: 28.2 µM [cytotoxic, partial curve, poor fit]"},
      {"measurement": "Potency", "setting": "[15]", "value": "inactive"},
      {"measurement": "Potency", "setting": "[6]", "value": "active: 15.8 µM"},
      {"measurement": "Potency", "setting": "[12]", "value": "inconclusive: 39.8 µM [cytotoxic, single point]"}
    ]},
    {"smiles": "CC1=C(C(=O)OC(C)C)C(c2cccc([N+](=O)[O-])c2)C(C(=O)OC2CN(C(c3ccccc3)c3ccccc3)C2)=C(N)N1", "note": "(centres undefined)", "values": [
      {"measurement": "Potency", "setting": "[13]", "value": "inconclusive: 20.6 µM [inhibitor, single point]"},
      {"measurement": "Potency", "setting": "[9]", "value": "active: 1.95 µM"},
      {"measurement": "Potency", "setting": "[5]", "value": "inconclusive: 33.5 µM [inhibitor, single point]"},
      {"measurement": "Potency", "setting": "[16]", "value": "inconclusive: 29.9 µM [inhibitor, single point]"},
      {"measurement": "Potency", "setting": "[17]", "value": "active: 18.4 µM"}
    ]},
    {"smiles": "CCC(=O)N1CCOc2c(cc(-c3ccc(OC)c(OC)c3)cc2OC[C@H]2CCCN(C)C2)C1", "values": [
      {"measurement": "Potency", "setting": "[9]", "value": "inconclusive: 7.56 µM [inhibitor, partial curve]"},
      {"measurement": "Potency", "setting": "[1]", "value": "active: 8.17 µM"},
      {"measurement": "Potency", "setting": "[5]", "value": "inconclusive: 20.6 µM [inhibitor, single point]"},
      {"measurement": "Potency", "setting": "[3]", "value": "inconclusive: 25.9 µM [inhibitor, single point]"}
    ]},
    {"smiles": "CCN(CC)C(=O)Nc1ccc(OCC(O)CNC(C)(C)C)c(C(C)=O)c1", "note": "(centres undefined)", "values": [
      {"measurement": "Potency", "setting": "[9]", "value": "inactive"},
      {"measurement": "Potency", "setting": "[2]", "value": "inactive"},
      {"measurement": "max response", "setting": "[3]", "value": "inactive: -6.49%"},
      {"measurement": "outcome", "setting": "[3]", "value": "inactive"},
      {"measurement": "Potency", "setting": "[11]", "value": "inactive"},
      {"measurement": "Potency", "setting": "[18]", "value": "inactive"}
    ]}
  ]
}
